Consider six molecules from patent publication CN115433274A (BEIJING KENUO XINCHENG TECH CO LTD, dated 2022).

Like-named read-outs stand apart in the source and are kept apart here.

Assay [1] deals with T1, 人血清白蛋白(HSA)重组蛋白 (human, UniProt P02768).
T1 construct: Bought product; also called Human serum albumin; 人SA
Put plainly: BLI (Octet QKe), antibody captured on AHC probe, HSA 60 nM in solution, 1:1 fit. In general terms: In BLI a coated tip is dipped into the sample, and binding shifts an interference pattern.

For another assay, the target named is T2, 食蟹猴SA重组蛋白 (cynomolgus monkey, UniProt A2V9Z4 25-608, limits assumed).
T2 construct: Bought product; also called cyno SA; Cynomolgus serum albumin
Put plainly: ELISA, albumin coated at 1 μg/mL, HRP-anti-human Fc.

The target in assay [2] is T3, 小鼠SA重组蛋白 (mouse, UniProt P07724 25-608).
T3 construct: Bought product; also called MSA; 鼠血清白蛋白
The assay is described as above.

Assay [3] deals with T1, 人血清白蛋白(HSA)重组蛋白. Nature of the assay: BLI (Octet QKe), antibody captured on AHC probe, HSA 60 nM in solution, 1:1 fit. This is another data set of the same source.
Assay [4] concerns the target T1, 人血清白蛋白(HSA)重组蛋白. Nature of the assay: ELISA, albumin coated at 1 μg/mL, HRP-anti-human Fc.
The target in assay [5] is T3, 小鼠SA重组蛋白. Nature of the assay: ELISA, mouse SA coated at 1 μg/mL, detection with HRP-anti-human Fc. A general note: ELISA stands for enzyme-linked immunosorbent assay.

B1: 嵌合抗体ch2MG6 (Fc fusion)
chain: QVQLQESGGGLVQAGGSLRLSCAASGSTYPTAYIAWFRQAPGKEREGVAGIYTVGGSTFYTDSVKGRFTISRDNAKNTVYLLMNSLKPEDTAMYFCAAGRTDTAKLRDPRSFGYWGQGTQVTVSSAS[letters of human IgG1 Fc with changes omitted]
A word on the Kd: it is the constant that tells how readily two partners part at equilibrium. Read a low Kd as higher affinity. As to B1, the Kd with 人血清白蛋白(HSA)重组蛋白 [1] stood at 0.579 nM.

B2: 人源化抗体hz2MG6 (Fc fusion)
chain: EVQLVESGGGLVQAGGSLRLSCAASGSTYPTAYIAWFRQAPGKEREGVAGIYTVGGSTFYTDSVKGRFTISRDNAKNSLYLQMNSLRAEDTAVYFCAAGRTDTAKLRDPRSFGYWGQGTLVTVSSAS[letters of human IgG1 Fc with changes omitted]
For the molecule B2, the binding result in the assay with 食蟹猴SA重组蛋白 and with 小鼠SA重组蛋白 [2] was “binds” each time. This molecule also returned a Kd in the assay with 人血清白蛋白(HSA)重组蛋白 [3] of 1.72 nM.

B3: 人源化抗体hzH4 (Fc fusion)
chain: EVQLVESGGGLVQPGGSLRLSCAASGVSYRPNCVAWFRQAPGKEREGVAAIYTDSGLSGTTYYADSVKGRFTISRDNAKNSLYLQMNSLRAEDTAVYYCAADWKYDSTRCGLEVEYDSWGQGTLVTVSSAS[letters of human IgG1 Fc with changes omitted]
notes: also called 人源化2H4
As to B3, the binding result with 人血清白蛋白(HSA)重组蛋白 [4] is reported as “binds”; with 食蟹猴SA重组蛋白, “binds”; in the assay with 小鼠SA重组蛋白 [5], “no binding (tested: 起始浓度为1μg/mL)”.

B4: 嵌合抗体ch2H2 (Fc fusion)
chain: EVQLQESGGGLVQPGGSLRLSCAASGFTFSNYGMSWFRQAPGKALEWVSGIYSDGSNTYYADSVKGRFTISRDNAKNTLYLQMNSLKSEDTALYYCATTYNVQFAATAGIKLTDFDYRGQGTQVTVSSAS[letters of human IgG1 Fc with changes omitted]
In turn, B4 returned a Kd in the assay with 人血清白蛋白(HSA)重组蛋白 [1] of 16.2 nM.

B5: 嵌合抗体ch2H1 (Fc fusion)
chain: EVQLQESGGGSVQAGGSLRLSCAASGGSYRPNCVAWFRQVPGKEREGVGAIYTDSGISGTTYYADSVKGRFTISQDVTKNMVYLQMNSLKPEDTAMYYCAADWKYDGSRCGLEVEYDSRGQGTQVTVSSAS[letters of human IgG1 Fc with changes omitted]
Molecule B5 came in with a dissociation constant (Kd) with 人血清白蛋白(HSA)重组蛋白 [1] of 27.9 nM.

B6: 嵌合抗体ch2H4 (Fc fusion)
chain: EVQLQESGGGSVQAGGSLRLSCAASLVSYRPNCVAWFRQVPGKEREGVAAIYTDSGLSGTTYYADSVKGRFTISQDDTKNMVYLQMNSLKPEDAAMYYCAADWKYDSTRCGLEVEYDSRGQGTQVTVSSAS[letters of human IgG1 Fc with changes omitted]
As for B6, the Kd with 人血清白蛋白(HSA)重组蛋白 [1] was found to be 7.79 nM.
